Test results as given in the supplement of paper PMC10369915.
The list shows a part of the results. No stated cut-off is given here; in the data, active = 3.2 or more and inactive = the rest. Most of these values are background signal.

target: SHP2 C-SH2 domain E139D; experiment: enrichment score (SH2-bound / input frequency) (ratio); bacterial display of known human phosphotyrosine sites (pTyr-Var adds point mutants) read by sequencing; higher = stronger binding; tyrosines were phosphorylated by kinases first; conditions: peptide library: Human pTyr
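Further: displayed peptides selected on beads carrying the immobilized SH2 domain, with library peptides lacking any tyrosine serving as negative controls.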

Binder	enrichment score
KFSHSGRYIMTRDAL [2ABB_HUMAN_295_YA]	inactive: 2.99
EDLLCFAYQVAKGME [FLT3_HUMAN_793]	inactive: 1.75
DIMSDSNYVVRGNAR [FLT3_HUMAN_842]	inactive: 0.554
NMRPPFTYATLIRWA [FOXP3_HUMAN_342]	active: 3.27
TSLNSNDYGYGGQKR [FUBP1_HUMAN_58]	inactive: 0.851
TSLNSNDYGAGGQKR [FUBP1_HUMAN_58_YA]	inactive: 1.43
YYRQQAAYYAQTSPQ [FUBP1_HUMAN_625]	inactive: 0.48
GRTARGSYGYIKTTA [FYB_HUMAN_559]	inactive: 1.3
GRTARGSYGAIKTTA [FYB_HUMAN_559_YA]	inactive: 0.837
NEEGKYGYVLRSYLA [FYB_HUMAN_757]	inactive: 0.944
ADNDGEIYDDIADGC [FYB_HUMAN_771]	inactive: 1.22
SETTKGAYSLSIRDW [FYN_HUMAN_185]	inactive: 0.947
FTATEPQYQPGENLG [FYN_HUMAN_531]	inactive: 0.619
GKPADAVYGQKEIHR [G3BP1_HUMAN_56]	inactive: 1.13
GFQAEGTYKWVNPHK [G6PD_HUMAN_507_YA]	inactive: 1.08
ASVDSSLYNLPRSYS [GAB1_HUMAN_259]	inactive: 0.604
ASVDSSLYNLPRSAS [GAB1_HUMAN_259_YA]	inactive: 0.678
TEFRDSTYDLPRSLA [GAB2_HUMAN_266]	inactive: 0.561

target: SHP2 C-SH2 domain wild-type; experiment: as above; conditions: peptide library: Human pTyr

Binder	enrichment score
KFSHSGRYIMTRDAL [2ABB_HUMAN_295_YA]	inactive: 3.12
EDLLCFAYQVAKGME [FLT3_HUMAN_793]	inactive: 1.4
DIMSDSNYVVRGNAR [FLT3_HUMAN_842]	inactive: 0.471
NMRPPFTYATLIRWA [FOXP3_HUMAN_342]	inactive: 2.91
TSLNSNDYGYGGQKR [FUBP1_HUMAN_58]	inactive: 0.815
TSLNSNDYGAGGQKR [FUBP1_HUMAN_58_YA]	inactive: 0.754
YYRQQAAYYAQTSPQ [FUBP1_HUMAN_625]	inactive: 0.709
GRTARGSYGYIKTTA [FYB_HUMAN_559]	inactive: 1.3
GRTARGSYGAIKTTA [FYB_HUMAN_559_YA]	inactive: 0.875
NEEGKYGYVLRSYLA [FYB_HUMAN_757]	inactive: 1.03
ADNDGEIYDDIADGC [FYB_HUMAN_771]	inactive: 1.06
SETTKGAYSLSIRDW [FYN_HUMAN_185]	inactive: 0.71
FTATEPQYQPGENLG [FYN_HUMAN_531]	inactive: 0.514
GKPADAVYGQKEIHR [G3BP1_HUMAN_56]	inactive: 1.07
GFQAEGTYKWVNPHK [G6PD_HUMAN_507_YA]	inactive: 0.874
ASVDSSLYNLPRSYS [GAB1_HUMAN_259]	inactive: 0.484
ASVDSSLYNLPRSAS [GAB1_HUMAN_259_YA]	inactive: 0.498
TEFRDSTYDLPRSLA [GAB2_HUMAN_266]	inactive: 0.557

target: SHP2 N-SH2 domain L43F; experiment: as above; conditions: peptide library: Human pTyr

Binder	enrichment score
KFSHSGRYIMTRDAL [2ABB_HUMAN_295_YA]	inactive: 2.87
EDLLCFAYQVAKGME [FLT3_HUMAN_793]	inactive: 1.4
DIMSDSNYVVRGNAR [FLT3_HUMAN_842]	inactive: 0.523
NMRPPFTYATLIRWA [FOXP3_HUMAN_342]	inactive: 3
TSLNSNDYGYGGQKR [FUBP1_HUMAN_58]	inactive: 1.18
TSLNSNDYGAGGQKR [FUBP1_HUMAN_58_YA]	inactive: 0.926
YYRQQAAYYAQTSPQ [FUBP1_HUMAN_625]	inactive: 0.647
GRTARGSYGYIKTTA [FYB_HUMAN_559]	inactive: 1.22
GRTARGSYGAIKTTA [FYB_HUMAN_559_YA]	inactive: 0.744
NEEGKYGYVLRSYLA [FYB_HUMAN_757]	inactive: 1.07
ADNDGEIYDDIADGC [FYB_HUMAN_771]	inactive: 1.11
SETTKGAYSLSIRDW [FYN_HUMAN_185]	inactive: 0.862
FTATEPQYQPGENLG [FYN_HUMAN_531]	inactive: 0.568
GKPADAVYGQKEIHR [G3BP1_HUMAN_56]	inactive: 0.981
GFQAEGTYKWVNPHK [G6PD_HUMAN_507_YA]	inactive: 0.746
ASVDSSLYNLPRSYS [GAB1_HUMAN_259]	inactive: 0.488
ASVDSSLYNLPRSAS [GAB1_HUMAN_259_YA]	inactive: 0.577
TEFRDSTYDLPRSLA [GAB2_HUMAN_266]	inactive: 0.58

target: SHP2 N-SH2 domain T42A; experiment: as above; conditions: peptide library: Human pTyr

Binder	enrichment score
KFSHSGRYIMTRDAL [2ABB_HUMAN_295_YA]	inactive: 3.05
EDLLCFAYQVAKGME [FLT3_HUMAN_793]	inactive: 1.42
DIMSDSNYVVRGNAR [FLT3_HUMAN_842]	inactive: 0.707
NMRPPFTYATLIRWA [FOXP3_HUMAN_342]	inactive: 2.64
TSLNSNDYGYGGQKR [FUBP1_HUMAN_58]	inactive: 0.799
TSLNSNDYGAGGQKR [FUBP1_HUMAN_58_YA]	inactive: 0.896
YYRQQAAYYAQTSPQ [FUBP1_HUMAN_625]	inactive: 0.7
GRTARGSYGYIKTTA [FYB_HUMAN_559]	inactive: 1.17
GRTARGSYGAIKTTA [FYB_HUMAN_559_YA]	inactive: 0.823
NEEGKYGYVLRSYLA [FYB_HUMAN_757]	inactive: 1.28
ADNDGEIYDDIADGC [FYB_HUMAN_771]	inactive: 1.16
SETTKGAYSLSIRDW [FYN_HUMAN_185]	inactive: 0.72
FTATEPQYQPGENLG [FYN_HUMAN_531]	inactive: 0.579
GKPADAVYGQKEIHR [G3BP1_HUMAN_56]	inactive: 1.08
GFQAEGTYKWVNPHK [G6PD_HUMAN_507_YA]	inactive: 0.823
ASVDSSLYNLPRSYS [GAB1_HUMAN_259]	inactive: 0.49
ASVDSSLYNLPRSAS [GAB1_HUMAN_259_YA]	inactive: 0.688
TEFRDSTYDLPRSLA [GAB2_HUMAN_266]	inactive: 0.56

target: SHP2 N-SH2 domain T52S; experiment: as above; conditions: peptide library: Human pTyr

Binder	enrichment score
KFSHSGRYIMTRDAL [2ABB_HUMAN_295_YA]	active: 3.22
EDLLCFAYQVAKGME [FLT3_HUMAN_793]	inactive: 1.48
DIMSDSNYVVRGNAR [FLT3_HUMAN_842]	inactive: 0.56
NMRPPFTYATLIRWA [FOXP3_HUMAN_342]	inactive: 2.98
TSLNSNDYGYGGQKR [FUBP1_HUMAN_58]	inactive: 0.868
TSLNSNDYGAGGQKR [FUBP1_HUMAN_58_YA]	inactive: 0.743
YYRQQAAYYAQTSPQ [FUBP1_HUMAN_625]	inactive: 0.603
GRTARGSYGYIKTTA [FYB_HUMAN_559]	inactive: 1.15
GRTARGSYGAIKTTA [FYB_HUMAN_559_YA]	inactive: 0.811
NEEGKYGYVLRSYLA [FYB_HUMAN_757]	inactive: 1.16
ADNDGEIYDDIADGC [FYB_HUMAN_771]	inactive: 1.43
SETTKGAYSLSIRDW [FYN_HUMAN_185]	inactive: 0.937
FTATEPQYQPGENLG [FYN_HUMAN_531]	inactive: 0.523
GKPADAVYGQKEIHR [G3BP1_HUMAN_56]	inactive: 1.21
GFQAEGTYKWVNPHK [G6PD_HUMAN_507_YA]	inactive: 0.887
ASVDSSLYNLPRSYS [GAB1_HUMAN_259]	inactive: 0.616
ASVDSSLYNLPRSAS [GAB1_HUMAN_259_YA]	inactive: 0.576
TEFRDSTYDLPRSLA [GAB2_HUMAN_266]	inactive: 0.61

target: SHP2 N-SH2 domain wild-type; experiment: as above; conditions: peptide library: Human pTyr

Binder	enrichment score
KFSHSGRYIMTRDAL [2ABB_HUMAN_295_YA]	active: 3.85
EDLLCFAYQVAKGME [FLT3_HUMAN_793]	inactive: 1.64
DIMSDSNYVVRGNAR [FLT3_HUMAN_842]	inactive: 0.457
NMRPPFTYATLIRWA [FOXP3_HUMAN_342]	active: 3.4
TSLNSNDYGYGGQKR [FUBP1_HUMAN_58]	inactive: 0.73
TSLNSNDYGAGGQKR [FUBP1_HUMAN_58_YA]	inactive: 0.998
YYRQQAAYYAQTSPQ [FUBP1_HUMAN_625]	inactive: 0.603
GRTARGSYGYIKTTA [FYB_HUMAN_559]	inactive: 1.46
GRTARGSYGAIKTTA [FYB_HUMAN_559_YA]	inactive: 0.879
NEEGKYGYVLRSYLA [FYB_HUMAN_757]	inactive: 1.41
ADNDGEIYDDIADGC [FYB_HUMAN_771]	inactive: 1.41
SETTKGAYSLSIRDW [FYN_HUMAN_185]	inactive: 0.789
FTATEPQYQPGENLG [FYN_HUMAN_531]	inactive: 0.474
GKPADAVYGQKEIHR [G3BP1_HUMAN_56]	inactive: 1.08
GFQAEGTYKWVNPHK [G6PD_HUMAN_507_YA]	inactive: 0.959
ASVDSSLYNLPRSYS [GAB1_HUMAN_259]	inactive: 0.509
ASVDSSLYNLPRSAS [GAB1_HUMAN_259_YA]	inactive: 0.561
TEFRDSTYDLPRSLA [GAB2_HUMAN_266]	inactive: 0.534
